In the supplement of paper PMC4967469:
By IC50 is meant the dose at which the fit gives 50% viability; fits outside the tested doses are given as limits. AUC, from the same fit, is the share of area under the viability curve across the 256-fold dose range: 1 means no effect, lower means more sensitive.

Compound: FC(F)c1nc2ccccc2n1-c1nc(N2CCOCC2)nc(N2CCOCC2)n1 [ZSTK474]
Assay: Viability of human cancer cell lines after 72 h of drug (GDSC screen)
Method: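 Human cancer cell lines in 384-well plates, medium with 10% serum, drug for 72 h over a 256-fold dose range (nine 2-fold or five 4-fold steps up to the top dose). Adherent lines were fixed and stained with the nucleic acid dye Syto60, suspension lines read with resazurin; signal relative to control wells, capped at 0 and 100%. One two-parameter sigmoid per drug and line, fitted in a mixed model over all curves with the slope shared within a line.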

Cell Line	AUC	IC50
PE/CA-PJ15 (head and neck, adherent, top dose 5.12 µM)	0.92	> 5120 nM
PEO1 (ovary, adherent, top dose 5.12 µM)	0.797	2530 nM
PF-382 (T-cell lymphoblastic leukaemia, suspension, top dose 5.12 µM)	0.387	163 nM
PFSK-1 (medulloblastoma, adherent, top dose 5.12 µM)	0.773	2110 nM
PL4 (pancreas, adherent, top dose 5.12 µM)	0.882	> 5120 nM
PL18 (pancreas, adherent, top dose 5.12 µM)	0.924	> 5120 nM
PL-21 (acute myeloid leukaemia, suspension, top dose 5.12 µM)	0.387	149 nM
PSN1 (pancreas, adherent, top dose 5.12 µM)	0.8	2040 nM
QGP-1 (pancreas, adherent, top dose 5.12 µM)	0.893	> 5120 nM
QIMR-WIL (acute myeloid leukaemia, suspension, top dose 5.12 µM)	0.272	73.3 nM
RC-K8 (B-cell lymphoma, suspension, top dose 5.12 µM)	0.968	> 5120 nM
RCC10RGB (kidney, adherent, top dose 10.24 µM)	0.85	> 10200 nM
RCC-AB (kidney, adherent, top dose 5.12 µM)	0.488	293 nM
RCC-ER (kidney, adherent, top dose 5.12 µM)	0.733	1610 nM
RCC-FG2 (kidney, adherent, top dose 5.12 µM)	0.643	891 nM
RCC-JF (kidney, adherent, top dose 5.12 µM)	0.522	371 nM
RCC-JW (kidney, adherent, top dose 5.12 µM)	0.518	358 nM

Cell Line	AUC	IC50
RCC-MF (kidney, adherent, top dose 5.12 µM)	0.576	550 nM
RCM-1 (large intestine, adherent, top dose 5.12 µM)	0.921	> 5120 nM
RD (rhabdomyosarcoma, adherent, top dose 5.12 µM)	0.799	2720 nM
REH (B-cell leukaemia, suspension, top dose 5.12 µM)	0.342	119 nM
RERF-GC-1B (stomach, adherent, top dose 5.12 µM)	0.869	> 5120 nM
RERF-LC-KJ (lung adenocarcinoma, adherent, top dose 5.12 µM)	0.811	2820 nM
RERF-LC-MS (lung adenocarcinoma, adherent, top dose 5.12 µM)	0.75	1710 nM
RERF-LC-Sq1 (lung squamous cell carcinoma, adherent, top dose 5.12 µM)	0.805	4180 nM
RF-48 (stomach, adherent, top dose 5.12 µM)	0.549	442 nM
RH-1 (rhabdomyosarcoma, adherent, top dose 5.12 µM)	0.522	363 nM
RH-18 (rhabdomyosarcoma, adherent, top dose 5.12 µM)	0.604	646 nM
RH-41 (rhabdomyosarcoma, adherent, top dose 5.12 µM)	0.896	4490 nM
RKN (ovary, adherent, top dose 5.12 µM)	0.631	750 nM
RKO (large intestine, adherent, top dose 5.12 µM)	0.768	1780 nM
RL95-2 (endometrium, adherent, top dose 5.12 µM)	0.97	> 5120 nM
RL (B-cell lymphoma, suspension, top dose 5.12 µM)	0.484	291 nM
